# Experimental data: the supplement of paper PMC8728848
# This is one part of the list.
# Tests used:
# Assay in all cases: glycan array binding signal (z-score within array); higher = stronger binding
# Conditions in all cases: glycan notation: IUPAC condensed, linker removed
# [1] = molecular target: Gal(a1-3)Gal(b1-4)GlcNAc
# How it was run: (§1)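 The Consortium for Functional Glycomics database supplied 3228 glycan arrays, of which those lacking an available protein sequence were dropped. The binding signal, a within-array Z-score, was averaged across arrays of the same protein sequence and across linkers. Negative scores can be read as non-binding.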
# [2] = molecular target: Gal(a1-3)Gal(b1-4)GlcNAc(b1-2)Man
# How it was run: as §1
# [3] = molecular target: Gal(a1-3)Gal(b1-4)GlcNAc(b1-2)Man(a1-3)[Gal(a1-3)Gal(b1-4)GlcNAc(b1-2)Man(a1-6)]Man(b1-4)GlcNAc(b1-4)GlcNAc
# How it was run: as §1
# [4] = molecular target: Gal(a1-3)Gal(b1-4)GlcNAc(b1-3)GalNAc
# How it was run: as §1
# [5] = molecular target: Gal(a1-3)Gal(b1-4)GlcNAc(b1-6)GalNAc
# How it was run: as §1
# [6] = molecular target: Gal(a1-3)Gal(b1-4)[Fuc(a1-3)]GlcNAc
# How it was run: as §1
# [7] = molecular target: Gal(a1-3)Gal(b1-4)[Fuc(a1-3)]GlcNAc(b1-2)Man(a1-3)[Gal(a1-3)Gal(b1-4)[Fuc(a1-3)]GlcNAc(b1-2)Man(a1-6)]Man(b1-4)GlcNAc(b1-4)GlcNAc
# How it was run: as §1
# [8] = molecular target: Gal(a1-3)GalNAc
# How it was run: as §1
# [9] = molecular target: Gal(a1-3)[Gal(a1-4)]Gal(b1-4)GlcNAc
# How it was run: as §1
# [10] = molecular target: Gal(a1-4)Gal(b1-3)GlcNAc(b1-2)Man(a1-3)[Gal(a1-4)Gal(b1-3)GlcNAc(b1-2)Man(a1-6)]Man(b1-4)GlcNAc(b1-4)GlcNAc
# How it was run: as §1
# [11] = molecular target: Gal(a1-4)Gal(b1-4)Glc
# How it was run: as §1
# [12] = molecular target: Gal(a1-4)Gal(b1-4)GlcNAc
# How it was run: as §1
# [13] = molecular target: Gal(a1-4)Gal(b1-4)GlcNAc(b1-2)Man(a1-3)[Gal(a1-4)Gal(b1-4)GlcNAc(b1-2)Man(a1-6)]Man(b1-4)GlcNAc(b1-4)GlcNAc
# How it was run: as §1
# [14] = molecular target: Gal(a1-4)Gal(b1-4)GlcNAc(b1-3)Gal(b1-4)Glc
# How it was run: as §1
# [15] = molecular target: Gal(a1-4)GlcNAc
# How it was run: as §1
# [16] = molecular target: Gal(a1-6)Glc
# How it was run: as §1
# [17] = molecular target: Gal(b1-2)Gal
# How it was run: as §1
# [18] = molecular target: Gal(b1-3)Gal
# How it was run: as §1
# [19] = molecular target: Gal(b1-3)Gal(b1-4)GlcNAc
# How it was run: as §1
# [20] = molecular target: Gal(b1-3)GalNAc
# How it was run: as §1
# [21] = molecular target: Gal(b1-3)GalNAc(a1-3)[Fuc(a1-2)]Gal(b1-4)Glc
# How it was run: as §1
# [22] = molecular target: Gal(b1-3)GalNAc(a1-3)[Fuc(a1-2)]Gal(b1-4)GlcNAc
# How it was run: as §1
# [23] = molecular target: Gal(b1-3)GalNAc(b1-3)Gal
# How it was run: as §1
# [24] = molecular target: Gal(b1-3)GalNAc(b1-3)Gal(a1-4)Gal(b1-4)Glc
# How it was run: as §1
# [25] = molecular target: Gal(b1-3)GalNAc(b1-4)Gal(b1-4)Glc
# How it was run: as §1
# [26] = molecular target: Gal(b1-3)GalNAc(b1-4)[Neu5Ac(a2-3)]Gal(b1-4)Glc
# How it was run: as §1
# [27] = molecular target: Gal(b1-3)GlcNAc
# How it was run: as §1
# [28] = molecular target: Gal(b1-3)GlcNAc(a1-3)Gal(b1-4)GlcNAc
# How it was run: as §1
# [29] = molecular target: Gal(b1-3)GlcNAc(a1-6)Gal(b1-4)GlcNAc
# How it was run: as §1
# [30] = molecular target: Gal(b1-3)GlcNAc(b1-2)Man
# How it was run: as §1
# [31] = molecular target: Gal(b1-3)GlcNAc(b1-2)Man(a1-3)[Gal(b1-3)GlcNAc(b1-2)Man(a1-6)]Man(b1-4)GlcNAc(b1-4)GlcNAc
# How it was run: as §1
# [32] = molecular target: Gal(b1-3)GlcNAc(b1-2)Man(a1-3)[Gal(b1-3)GlcNAc(b1-2)Man(a1-6)]Man(b1-4)GlcNAc(b1-4)[Fuc(a1-6)]GlcNAc
# How it was run: as §1
# [33] = molecular target: Gal(b1-3)GlcNAc(b1-2)Man(a1-3)[GlcNAc(b1-4)][Gal(b1-3)GlcNAc(b1-2)Man(a1-6)]Man(b1-4)GlcNAc(b1-4)GlcNAc
# How it was run: as §1
# [34] = molecular target: Gal(b1-3)GlcNAc(b1-2)[Gal(b1-3)GlcNAc(b1-6)]Man(a1-6)[Gal(b1-3)GlcNAc(b1-2)Man(a1-3)]Man(b1-4)GlcNAc(b1-4)GlcNAc
# How it was run: as §1
# [35] = molecular target: Gal(b1-3)GlcNAc(b1-3)Gal(b1-3)GlcNAc
# How it was run: as §1
# [36] = molecular target: Gal(b1-3)GlcNAc(b1-3)Gal(b1-4)Glc
# How it was run: as §1
# [37] = molecular target: Gal(b1-3)GlcNAc(b1-3)Gal(b1-4)GlcNAc
# How it was run: as §1
# [38] = molecular target: Gal(b1-3)GlcNAc(b1-3)Gal(b1-4)GlcNAc(b1-2)Man(a1-3)[Gal(b1-3)GlcNAc(b1-3)Gal(b1-4)GlcNAc(b1-2)Man(a1-6)]Man(b1-4)GlcNAc(b1-4)GlcNAc
# How it was run: as §1
# [39] = molecular target: Gal(b1-3)GlcNAc(b1-3)Gal(b1-4)GlcNAc(b1-2)[Gal(b1-3)GlcNAc(b1-3)Gal(b1-4)GlcNAc(b1-6)]Man(a1-6)[Gal(b1-3)GlcNAc(b1-3)Gal(b1-4)GlcNAc(b1-2)Man(a1-3)]Man(b1-4)GlcNAc(b1-4)[Fuc(a1-6)]GlcNAc
# How it was run: as §1
# [40] = molecular target: Gal(b1-3)GlcNAc(b1-3)Gal(b1-4)GlcNAc(b1-3)Gal(b1-4)GlcNAc(b1-2)[Gal(b1-3)GlcNAc(b1-3)Gal(b1-4)GlcNAc(b1-3)Gal(b1-4)GlcNAc(b1-6)]Man(a1-6)[Gal(b1-3)GlcNAc(b1-3)Gal(b1-4)GlcNAc(b1-3)Gal(b1-4)GlcNAc(b1-2)Man(a1-3)]Man(b1-4)GlcNAc(b1-4)[Fuc(a1-6)]GlcNAc
# How it was run: as §1
# [41] = molecular target: Gal(b1-3)GlcNAc(b1-3)Gal(b1-4)GlcNAc(b1-6)[Gal(b1-3)GlcNAc(b1-3)]Gal(b1-4)Glc
# How it was run: as §1
# [42] = molecular target: Gal(b1-3)GlcNAc(b1-3)Gal(b1-4)[Fuc(a1-3)]GlcNAc
# How it was run: as §1
# [43] = molecular target: Gal(b1-3)GlcNAc(b1-3)Gal(b1-4)[Fuc(a1-3)]GlcNAc(b1-6)[Gal(b1-3)GlcNAc(b1-3)]Gal(b1-4)Glc
# How it was run: as §1
# [44] = molecular target: Gal(b1-3)GlcNAc(b1-3)GalNAc
# How it was run: as §1
# [45] = molecular target: Gal(b1-3)GlcNAc(b1-6)Gal(b1-4)GlcNAc
# How it was run: as §1
binder,measurement,setting,value
VLRB.aGPA.23-GCN4-biotin (Petromyzon marinus) (protein) ACPSQCSCSGTEVNCAGKSLASVPAGIPTTTRVLYLNSNQITKLEPGVFDRLANLRELHLWGNQLVSLPPGVFDNLANLEKLWLNSNQLTSLPAGLFDRLVNLEHLGLCCMKLTELPSGAFDKLTRLKQLGLDQNQLKSIPDGAFARLPSLTHVWLHTNPWDCQCTDILYLSGWVAQHSSIVGEGWPWRHSPDSAKCSGTNTPVRAVTEASTSPSKCP,glycan array binding signal (z-score),[1],-0.079
same,glycan array binding signal (z-score),[2],-0.087
same,glycan array binding signal (z-score),[3],-0.078
same,glycan array binding signal (z-score),[4],-0.083
same,glycan array binding signal (z-score),[5],-0.08
same,glycan array binding signal (z-score),[6],-0.075
same,glycan array binding signal (z-score),[7],-0.074
same,glycan array binding signal (z-score),[8],-0.066
same,glycan array binding signal (z-score),[9],-0.069
same,glycan array binding signal (z-score),[10],-0.073
same,glycan array binding signal (z-score),[11],-0.072
same,glycan array binding signal (z-score),[12],-0.071
same,glycan array binding signal (z-score),[13],-0.07
same,glycan array binding signal (z-score),[14],-0.08
same,glycan array binding signal (z-score),[15],-0.069
same,glycan array binding signal (z-score),[16],-0.08
same,glycan array binding signal (z-score),[17],3.68
same,glycan array binding signal (z-score),[18],-0.028
same,glycan array binding signal (z-score),[19],0.046
same,glycan array binding signal (z-score),[20],0.232
same,glycan array binding signal (z-score),[21],-0.079
same,glycan array binding signal (z-score),[22],-0.083
same,glycan array binding signal (z-score),[23],-0.045
same,glycan array binding signal (z-score),[24],-0.066
same,glycan array binding signal (z-score),[25],0.519
same,glycan array binding signal (z-score),[26],-0.078
same,glycan array binding signal (z-score),[27],-0.05
same,glycan array binding signal (z-score),[28],-0.084
same,glycan array binding signal (z-score),[29],-0.082
same,glycan array binding signal (z-score),[30],-0.072
same,glycan array binding signal (z-score),[31],-0.076
same,glycan array binding signal (z-score),[32],-0.082
same,glycan array binding signal (z-score),[33],-0.072
same,glycan array binding signal (z-score),[34],-0.081
same,glycan array binding signal (z-score),[35],-0.077
same,glycan array binding signal (z-score),[36],-0.089
same,glycan array binding signal (z-score),[37],-0.086
same,glycan array binding signal (z-score),[38],-0.064
same,glycan array binding signal (z-score),[39],-0.062
same,glycan array binding signal (z-score),[40],-0.064
same,glycan array binding signal (z-score),[41],-0.08
same,glycan array binding signal (z-score),[42],-0.078
same,glycan array binding signal (z-score),[43],-0.081
same,glycan array binding signal (z-score),[44],-0.083
same,glycan array binding signal (z-score),[45],-0.077
